# From PubChem BioAssay AID485344 (National Center for Advancing Translational Sciences (NCATS), 2010)
# The whole screen tested about 340,000 compounds, of which about 6,900 (2%) were called active. No stated cut-off is given here; in the data, active means inhibition above about 30%; inactive means below that, where a call was filed. The entries are a selection whose mix differs from that of the whole data set. Where no call is shown, the source filed none.
# Target: D(2) dopamine receptor (Homo sapiens) (UniProt P14416)
# Assay: HTS Assay for Allosteric Antagonists of the Human D2 Dopamine Receptor: Primary Screen for Antagonists; further: 0% is about no effect
# Conditions: HEK293 TREx D2 cells, calcium flux, dopamine EC80; at 10 µM; stronger effect = higher value
# Summary of the method: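 Tetracycline-induced HEK293 TREx cells expressing D2 receptor forced-coupled to calcium signalling, loaded with no-wash calcium dye. Compounds added and calcium flux read 180 s, then dopamine added at EC80 and read a further 180 s.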
# UniProt P14416, sequence (P14416 whole entry, looked up): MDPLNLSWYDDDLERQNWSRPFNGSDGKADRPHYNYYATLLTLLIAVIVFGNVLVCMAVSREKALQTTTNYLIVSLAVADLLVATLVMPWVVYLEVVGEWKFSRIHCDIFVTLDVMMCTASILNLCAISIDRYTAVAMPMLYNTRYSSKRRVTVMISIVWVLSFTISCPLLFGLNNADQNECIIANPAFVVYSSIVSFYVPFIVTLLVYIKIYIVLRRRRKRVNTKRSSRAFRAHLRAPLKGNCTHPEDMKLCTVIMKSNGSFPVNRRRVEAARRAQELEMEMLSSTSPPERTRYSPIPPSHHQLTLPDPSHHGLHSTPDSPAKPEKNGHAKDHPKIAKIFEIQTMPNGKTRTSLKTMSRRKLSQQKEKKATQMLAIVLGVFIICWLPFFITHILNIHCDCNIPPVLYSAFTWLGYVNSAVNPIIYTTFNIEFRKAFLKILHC
row,Structure (SMILES),inhibition
1,CC(Oc1ccccc1)C(=O)OCc1cc(=O)n2nc(C(C)C)sc2n1 (stereo unspecified),-16%
2,Fc1ccccc1N1CCN(c2ncc3c(n2)CCN(Cc2ccc(Br)s2)C3)CC1,13.4%
3,CC(=O)c1c(NCc2ccccc2)nc(=O)n(-c2ccccc2)c1C,active: 39.7%
4,COc1ccc(CCNc2nc(SCc3ccc(F)cc3)nc3ccccc23)cc1OC,15.2%
5,O=S(=O)(Nc1ccc(-c2ccc(N3CCCCCC3)nn2)cc1)c1cccc(C(F)(F)F)c1,10.5%
6,CC1=C(c2ccc(C)c(C)c2)S(=O)(=O)N=C1N1CCC(C(=O)Nc2ccc(Cl)cc2)CC1,-16.8%
7,CCc1nn(CC(=O)N2CCN(c3cc(C)ccc3C)CC2)c(=O)c2cc3occc3n12,-3.45%
8,CNC(=O)c1ccc(CSc2nc3cccnc3n2Cc2cccc(F)c2)cc1,-10.2%
9,C=CCSc1ncc(CO)n1Cc1ccccc1,active: 36.5%
10,O=[N+]([O-])c1ccccc1OCCCCN1CCCCC1,active: 93.9%
11,CCc1ccc(-c2nc(SCC(=O)NCC3CCCO3)c(-c3ccc(F)cc3)[nH]2)cc1 (stereo unspecified),26.1%
12,N#Cc1ccc(NC(=O)c2cc(-c3cccc(Cl)c3)on2)cc1,23.1%
13,COc1cc(NC(=O)NCCn2nnc3cc(S(=O)(=O)N(C)C)ccc32)cc(OC)c1OC,0.615%
14,COc1cc(NC(=O)c2cc3cc4ccc(OC)c(Cl)c4nc3s2)cc(OC)c1,17.7%
15,CCC(Sc1ccc2nnc(CCNS(=O)(=O)c3ccc(OC)cc3)n2n1)C(=O)OC (stereo unspecified),1.76%
16,Cc1ccc(-c2cc3ncc4c(n3n2)-c2ccccc2OC4)cc1,-3.13%
17,COc1ccc(-c2nc3c4ccccc4n(CC(=O)Nc4ccc(C(C)=O)cc4)c(=O)n3n2)cc1,15.6%
18,Cc1ccccc1C(=O)NC1(C(F)(F)F)C(=O)Nc2c1c(=O)[nH]c(=O)n2CCc1ccccc1 (stereo unspecified),-4.84%
19,Cc1nc2ccc(S(=O)(=O)NCC(=O)Nc3ccc(C)c(Cl)c3)cc2s1,9.54%
20,Cc1cc(C)cc(NC(=O)CSc2nc3c(cnn3-c3ccc(F)cc3)c(=O)[nH]2)c1,2.65%
21,O=S(=O)(c1ccc(Cl)cc1)N1CCC(c2ccncc2)CC1,5.83%

row,Structure (SMILES),inhibition
1,COc1cccc(C(=O)Nc2ccc(C(=O)OCc3cc(=O)n4cc(C)sc4n3)cc2)c1,1.17%
2,Cc1nc2c(C(=O)NCCc3ccccc3)c[nH]n2c(=O)c1Cc1ccccc1F,-5.13%
3,COc1cc(NS(=O)(=O)c2cc3c(cc2C)n(C)c(=O)c(=O)n3C)cc(OC)c1,-6.44%
4,Fc1ccc(Nc2c(-c3c[nH]c4ccccc34)nc3ccccn23)cc1,-0.899%
5,Cc1ccc(C(=O)Nc2nnc(S(=O)(=O)N3CCCc4ccccc43)s2)cc1,25.5%
6,COc1ccc(C(=O)Nc2ccc3nc(N4CCCCC4)cc(C)c3c2)cc1OC,0.533%
7,COc1ccc(CCNC(=O)c2ccc(CSCc3ccc(C)cc3)o2)cc1OC,26.7%
8,COCCCNC(=O)C1CCN(C(=O)c2cc3sccc3n2Cc2ccc(Cl)cc2)CC1,-9.23%
9,Cc1cccc(CSc2ccc3nnc(CCNS(=O)(=O)c4ccccc4)n3n2)c1,-3.64%
10,CCCCOC(=O)c1ccc(NC(=O)c2cc(=O)c3ccccc3o2)cc1,-16.5%
11,Cc1ccc(C)c(N2CCN(C(=O)c3cccn4c(=O)c5ccccc5nc34)CC2)c1,12.3%
12,O=C(O)CCCn1cc(NC(=O)COc2ccccc2F)cn1,-0.549%
13,O=C(Nc1ccc(OC(F)(F)F)cc1)C(NS(=O)(=O)c1cccc2nsnc12)c1ccccc1 (stereo unspecified),-23.3%
14,CCc1ccc(C(=O)c2cn(CC(=O)Nc3ccc(OC)cc3)c3cc4c(cc3c2=O)OCCO4)cc1,-11.9%
15,O=C(CSc1ncc2c(n1)-c1cc(Cl)ccc1N(Cc1ccccc1)S2(=O)=O)NCc1ccccc1,0.448%
16,O=C1CSC2(C(=O)N(Cc3c(F)cccc3Cl)c3ccccc32)N1c1ccc(F)c(F)c1 (stereo unspecified),5.05%
17,Cc1ccc(OCCSc2nc3ccccc3n2CC(=O)NC(C)C)cc1,-11.7%
18,Cc1ccc(-c2nnn3c2nc(N2CCC(C)CC2)c2ccccc23)cc1,-8.4%
19,CCOc1ccc(NC(=O)c2ncn(-c3ccccc3)n2)cc1,0.714%
20,CCc1ccccc1NC(=O)c1ncoc1-c1ccco1,8.46%
21,Cc1cccc(C)c1OCC(=O)Nc1c(C(=O)c2ccccc2)oc2ccccc12,-9.98%

row,Structure (SMILES),inhibition
1,COc1ccc(-c2nnc(SCC(=O)NCCc3ccccc3)nc2-c2ccc(OC)cc2)cc1,5.25%
2,Cn1c(CCN2CCN(c3ccccn3)CC2)nc2cc(NS(=O)(=O)c3ccc(Cl)cc3)ccc21,active: 73.9%
3,Cc1ccc(NC(=O)CSc2nc3nccnc3c(=O)n2CCc2c[nH]c3ccccc23)c(C)c1,-7.55%
4,COc1ccc(-c2c(C)nn3c(-c4ccccc4)cc(-c4ccccc4)nc23)cc1,-2.26%
5,Cc1oc2ncn(CC(C)C)c(=O)c2c1C(=O)NCCCN1CCCCC1C (stereo unspecified),-12.3%
6,COc1cccc(Cn2c(=O)n(CC3CCC(C(=O)N4CCOCC4)CC3)c(=O)c3sccc32)c1 (stereo unspecified),7.34%
7,Cc1cc(C)c2c(n1)SCC(=O)N2CC(=O)Nc1cccc(C)c1C,-0.942%
8,CCc1ccc(Cn2c(CNS(=O)(=O)c3ccc4c(c3)CCCC4)nc3cccnc32)cc1,15.9%
9,CCOc1ccc(NC(=O)c2oc3ccccc3c2NC(=O)Cc2cccs2)cc1,-8.35%
10,COc1ccc2nc3cc(Cl)ccc3c(Nc3cc(C(C)C)c(O)cc3C)c2c1,active: 31.3%
11,CCc1ccc2c(c1)c(=O)c(C(=O)c1ccccc1)cn2CC(=O)Nc1ccc(C)c(Cl)c1,2.32%
12,CCc1ccc2c(c1)c(=O)c(C(=O)c1ccc(C)cc1)cn2CC(=O)Nc1ccccc1C,-16.6%
13,CCCCNc1cc(N2CCN(C3CCCCC3)CC2)c2noc3c2c1C(=O)c1ccccc1-3,6.32%
14,CCCCC(=O)N1CCN(c2nc3c(C)c(C)ccc3s2)CC1,-13.9%
15,COc1ccccc1C(O)P(=O)(OC(C)C)c1ccc(N(C)C)cc1 (stereo unspecified),active: 31.2%
16,Cc1cc(C)c(NC(=O)CSc2cn(CC(=O)N3CCOCC3)c3ccccc23)c(C)c1,-2.02%
17,O=C(Cc1ccc(NC(=O)N2CCCCc3ccccc32)cc1)Nc1ccccc1Br,-10%
18,Cc1ccc(Cl)cc1NC(=O)c1cc(-c2ccc3c(c2)OCCO3)on1,-19.1%
19,Cc1cccc(NC(=O)CN(C)S(=O)(=O)c2cnc[nH]2)c1C,-4.39%
